Sequences with one replicate were seen in a single cluster, so their values are uncertain.
Tested on: ATP
Experiment: switch fluorescence ratio, 500 uM ATP over buffer (Cy3 cluster intensity, sum of 5 cycles each) (fold (ratio)); higher = stronger signal-on switching upon ATP binding; sequences stand for … in TCGTCGGCAGCGTCAGATGTGTATAAGAGACAGTTTTTTTTTTTTTTTTTTTTTTTTT…TC
Conditions: aptamer strand: ATP DNA aptamer (quencher-CACCTGGGGGAGTATTGCGGAGGAAGG + anchor), 100 nM annealed; ATP concentration: 500 uM; one replicate
Outline: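 Values give the fluorescence ratio for each switch-domain sequence, averaged from per-cluster ratios of summed target-cycle to summed buffer-cycle Cy3 intensity. The Cy3-labelled switching-strand clusters sat on a modified Illumina MiSeq flow-cell, were annealed to 100 nM quencher-labelled ATP aptamer, and were imaged in selection buffer, then after 15 min with 500 uM ATP at 22 °C. Five cycles ran with NaOH stripping and re-annealing between them, and clusters outside 100-1000 RFU were excluded.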
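Also: ATP exposure 15 min at 22 °C before imaging.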

CATTGCTTGC
switch fluorescence ratio: 1.08

CATACATAAA
switch fluorescence ratio: 1

GGGAGTGCTC
switch fluorescence ratio: 0.978

TATAGCGA
switch fluorescence ratio: 1.04

TTAGCCGAAG
switch fluorescence ratio: 1.03

CGTAGCTCGT
switch fluorescence ratio: 1.04

AGCTAATGGC
switch fluorescence ratio: 1.03

CCCATTGCAA
switch fluorescence ratio: 1.88

GGTGGTCTGT
switch fluorescence ratio: 0.983

AGCATAGGTG
switch fluorescence ratio: 1.29

ACTCTAGTGT
switch fluorescence ratio: 1.06

GCTCGATCGC
switch fluorescence ratio: 1.09

CGTTTTACAT
switch fluorescence ratio: 1

CGGCTAATGT
switch fluorescence ratio: 1.02

CTCTTTGTCT
switch fluorescence ratio: 0.982

TTTGATTCTA
switch fluorescence ratio: 1

TCGTGATGTT
switch fluorescence ratio: 1.03

ATTGTCTGCG
switch fluorescence ratio: 0.987

CTGGGAGGAA
switch fluorescence ratio: 0.963

CGCTGAATAA
switch fluorescence ratio: 1.19

AAGCTTGTG
switch fluorescence ratio: 0.99

TCGGGGCAC
switch fluorescence ratio: 0.993

AAGCCACCCG
switch fluorescence ratio: 1.1

CGGACAGGGG
switch fluorescence ratio: 1.05

AGGGAAAACC
switch fluorescence ratio: 1.02

ACTCGGGGCC
switch fluorescence ratio: 0.994

TCATTAATCG
switch fluorescence ratio: 0.999

ATCTCCAGGC
switch fluorescence ratio: 1.17

GGACTACGAT
switch fluorescence ratio: 1.02

GAATTTTTCA
switch fluorescence ratio: 0.959

TAATCTGGAG
switch fluorescence ratio: 1.03

CTGTTGGATG
switch fluorescence ratio: 1.01

AGCGGCGTGA
switch fluorescence ratio: 1.01

TTGGGTCCTG
switch fluorescence ratio: 1.01

CTTTTTTTG
switch fluorescence ratio: 0.955

GGGGGCTTCA
switch fluorescence ratio: 1.05

GACGTCAGTA
switch fluorescence ratio: 1.03

ACACCGGATT
switch fluorescence ratio: 0.989

ATCGTTAGG
switch fluorescence ratio: 0.995

ATCCGGGGAT
switch fluorescence ratio: 1.01

TTTCAAGT
switch fluorescence ratio: 1.03

GAGGGCAGTG
switch fluorescence ratio: 0.974

AAAGGACCTC
switch fluorescence ratio: 0.998

TCACGAGGTG
switch fluorescence ratio: 1.17

ACTGTTTCCG
switch fluorescence ratio: 1.03

AGGCGGGTCA
switch fluorescence ratio: 1.05

GAGCGCTGCG
switch fluorescence ratio: 0.982

TTCCCTGATT
switch fluorescence ratio: 1

TCCAGAGGCC
switch fluorescence ratio: 1.08

CGAGCTCGTC
switch fluorescence ratio: 1.01

ATGAGAGGCT
switch fluorescence ratio: 1.05

CTCCCACACA
switch fluorescence ratio: 1.3

AAATGTTGGG
switch fluorescence ratio: 1.01

ACGAATATTT
switch fluorescence ratio: 1.05

GGAAATACCG
switch fluorescence ratio: 0.974

AAAACCCCCC
switch fluorescence ratio: 1.15

GATTCGTATG
switch fluorescence ratio: 0.905

ACCAAGTCCG
switch fluorescence ratio: 1.68

CCGTCTTCCG
switch fluorescence ratio: 1.02

GCCTAAAATC
switch fluorescence ratio: 1.06

GTTTTCCA
switch fluorescence ratio: 0.976

ATTAGATGGC
switch fluorescence ratio: 0.951

ATGGTTGGGC
switch fluorescence ratio: 0.967

CATTGCGAGT
switch fluorescence ratio: 0.992

ACATACTCTA
switch fluorescence ratio: 1.4

TTTAGATGCG
switch fluorescence ratio: 1.02

TCCTCATCGT
switch fluorescence ratio: 1.14

AAGTCTAGCC
switch fluorescence ratio: 0.987

GAATGGCGGG
switch fluorescence ratio: 0.964

TGCTATTAC
switch fluorescence ratio: 2.09

GAGAAAATA
switch fluorescence ratio: 0.977

TACTGGATTT
switch fluorescence ratio: 0.984

TGTTTTCGCC
switch fluorescence ratio: 1.03

TCACACGCTT
switch fluorescence ratio: 1.1

ACTTGAAGT
switch fluorescence ratio: 1.02

CTCCAGGACG
switch fluorescence ratio: 1.2

ACGCAGGGTG
switch fluorescence ratio: 1.14

TCTTCGATAA
switch fluorescence ratio: 1.13

TCTCGATGTA
switch fluorescence ratio: 0.975

GGTCCTAAGC
switch fluorescence ratio: 1.04

CGTCATGGGA
switch fluorescence ratio: 1.01

GCGGCTCAAG
switch fluorescence ratio: 1.03

TAACGCATGT
switch fluorescence ratio: 1.01

TAGTTATTGC
switch fluorescence ratio: 0.989

TAAAATAATA
switch fluorescence ratio: 1

GTCAGGCATC
switch fluorescence ratio: 0.975

ATGACTTGCA
switch fluorescence ratio: 1.06

CAACCTTTGG
switch fluorescence ratio: 1.04

TCTTAATCGC
switch fluorescence ratio: 1

ATACAGTGGC
switch fluorescence ratio: 0.967

TAGTGGCCGG
switch fluorescence ratio: 0.945

GGAGGGCCGG
switch fluorescence ratio: 0.984

GACAATACAG
switch fluorescence ratio: 1.01

CACTGATTAA
switch fluorescence ratio: 0.966

ATATTTCAGT
switch fluorescence ratio: 1.01

TCGCCGCCCA
switch fluorescence ratio: 1.21

GAACAAGCCC
switch fluorescence ratio: 1.01

CCCGTCGTCG
switch fluorescence ratio: 0.999

CGGCATCGG
switch fluorescence ratio: 1.04

GGTAGAGGT
switch fluorescence ratio: 1.03

TGTGGTCAGG
switch fluorescence ratio: 1.06

CGGAGTGACC
switch fluorescence ratio: 1.19

CATTCCCTAT
switch fluorescence ratio: 0.991

TCTTAGTAAA
switch fluorescence ratio: 0.967

GGTTAGACGA
switch fluorescence ratio: 0.99

AGCCGGTGGC
switch fluorescence ratio: 0.963

TATTGCTAAG
switch fluorescence ratio: 1.01

CTTCATCAGT
switch fluorescence ratio: 1.08

AACTTCAAGA
switch fluorescence ratio: 1.02

CGGACAGCAT
switch fluorescence ratio: 3.14

GGTCTTCGCT
switch fluorescence ratio: 0.991

ATCAAGTAAG
switch fluorescence ratio: 1.03

TTGACACAA
switch fluorescence ratio: 1.16

AGTGACCTTG
switch fluorescence ratio: 0.996

GGGCGGATCA
switch fluorescence ratio: 1.03

AAGATGGTTG
switch fluorescence ratio: 0.957

CTCAGTCGTC
switch fluorescence ratio: 1.04

CAGCTGGAAT
switch fluorescence ratio: 1

GACGTAATTT
switch fluorescence ratio: 1.28

TGAAAGGGAC
switch fluorescence ratio: 1.06

GATCTAATGC
switch fluorescence ratio: 1.11

AAAGCGTAA
switch fluorescence ratio: 1.01

TGCCCCATTT
switch fluorescence ratio: 1.05

CGTGTCATTG
switch fluorescence ratio: 1.01

TTTTACTGGA
switch fluorescence ratio: 1.02

AGTTTCCGCA
switch fluorescence ratio: 1.8

ATATACTAGG
switch fluorescence ratio: 1.01

GATGGTGGTC
switch fluorescence ratio: 1.06

TTGACGAGAC
switch fluorescence ratio: 1.18

GGAATG
switch fluorescence ratio: 1.05

TCCCTTACTC
switch fluorescence ratio: 1.21

AATGAGGACC
switch fluorescence ratio: 0.98

GGGAATGGCT
switch fluorescence ratio: 0.963

CGGAGATTT
switch fluorescence ratio: 0.97

GGGAAGAGAA
switch fluorescence ratio: 0.975

ACTGTGAC
switch fluorescence ratio: 1.24

AGTGTGTTG
switch fluorescence ratio: 1

TCCGATGCGG
switch fluorescence ratio: 2.11

TAACTAATCT
switch fluorescence ratio: 0.989

ATCCCGTGAA
switch fluorescence ratio: 1.05

TCATTAGCGT
switch fluorescence ratio: 0.974

TACGTGGTAC
switch fluorescence ratio: 2.57

ACCCTGTGTT
switch fluorescence ratio: 1.02

TGCTTATTGA
switch fluorescence ratio: 1.02

ATTCCCCAGA
switch fluorescence ratio: 1.14

CCACTGAT
switch fluorescence ratio: 0.98

CTTGATACGT
switch fluorescence ratio: 1.02

CGGACCGATC
switch fluorescence ratio: 1.04

GTTAGAAATT
switch fluorescence ratio: 0.987

CAGAGAGCTA
switch fluorescence ratio: 0.975

TTAATCGGTG
switch fluorescence ratio: 1.01

CATAACGGCC
switch fluorescence ratio: 0.995

GGTTATGTGG
switch fluorescence ratio: 0.979

TCGACGGAAG
switch fluorescence ratio: 1.02

GCCGTCATTA
switch fluorescence ratio: 1.01

ACGTGCATTC
switch fluorescence ratio: 1.65

GGTGGCAACG
switch fluorescence ratio: 1.01

CGGGCAAAGC
switch fluorescence ratio: 1.53

— the supplement of paper PMC10126150
